Among all 310,000 compounds or so, about 2,200 (0.71%) showed an effect of 50% or more. Effects have a minus sign here. Some of the results follow.
target: human ether-à-go-go-related gene (hERG) potassium channel (human, UniProt Q12809); assay: primary screen, population patch clamp on CHO cells stably expressing hERG
Sequence (Q12809 whole entry, looked up): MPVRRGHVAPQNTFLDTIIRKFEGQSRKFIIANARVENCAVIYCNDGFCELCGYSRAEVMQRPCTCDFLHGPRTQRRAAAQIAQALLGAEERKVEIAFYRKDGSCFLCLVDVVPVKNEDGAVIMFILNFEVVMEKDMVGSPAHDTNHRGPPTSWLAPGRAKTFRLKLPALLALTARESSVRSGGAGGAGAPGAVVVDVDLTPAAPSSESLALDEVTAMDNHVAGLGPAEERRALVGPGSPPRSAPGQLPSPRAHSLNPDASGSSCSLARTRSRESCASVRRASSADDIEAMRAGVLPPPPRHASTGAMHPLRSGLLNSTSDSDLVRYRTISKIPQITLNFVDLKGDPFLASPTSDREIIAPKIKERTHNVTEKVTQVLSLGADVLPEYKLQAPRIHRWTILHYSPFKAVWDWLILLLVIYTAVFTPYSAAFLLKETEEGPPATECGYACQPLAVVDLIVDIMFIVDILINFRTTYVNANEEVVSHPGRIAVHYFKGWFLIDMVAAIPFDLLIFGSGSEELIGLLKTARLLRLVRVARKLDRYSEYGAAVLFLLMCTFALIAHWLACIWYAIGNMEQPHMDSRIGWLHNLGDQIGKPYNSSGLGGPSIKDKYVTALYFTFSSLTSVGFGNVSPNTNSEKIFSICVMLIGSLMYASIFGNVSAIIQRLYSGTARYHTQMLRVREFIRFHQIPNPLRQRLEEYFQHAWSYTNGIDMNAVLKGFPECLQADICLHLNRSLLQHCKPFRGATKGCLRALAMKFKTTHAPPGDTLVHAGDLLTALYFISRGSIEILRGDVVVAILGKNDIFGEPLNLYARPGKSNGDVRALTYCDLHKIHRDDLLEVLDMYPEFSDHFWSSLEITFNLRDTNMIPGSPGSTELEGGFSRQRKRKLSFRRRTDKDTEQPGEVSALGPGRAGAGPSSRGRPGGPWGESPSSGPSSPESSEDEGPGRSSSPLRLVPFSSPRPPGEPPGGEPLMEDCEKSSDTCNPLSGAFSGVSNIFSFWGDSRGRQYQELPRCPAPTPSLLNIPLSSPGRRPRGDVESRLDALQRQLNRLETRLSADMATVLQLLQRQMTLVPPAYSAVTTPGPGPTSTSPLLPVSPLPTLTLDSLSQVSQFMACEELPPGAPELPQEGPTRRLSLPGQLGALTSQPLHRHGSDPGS

Row | Compound | hERG current change (%, negative = inhibition) at 1uM
1 | O=C(c1ccco1)N1CCN(C(c2ccc(F)cc2)c2nnnn2CC2CCCO2)CC1 (centres unmarked) | 0.849%
2 | Br.CC(=O)c1sc(N/N=C2\CC3CCC2(C)C3(C)C)nc1C (centres unmarked) | 5.55%
3 | COc1cc(/C=C2\SC(=N)N(c3ccc(F)cc3)C2=O)ccc1O | 11.3%
4 | Cc1ccc(C(=O)NC(=O)CSc2ncccc2C(=O)O)cc1 | 3.17%
5 | COc1ccccc1NS(=O)(=O)c1cccc(C(=O)N/N=C(\C)c2ccc(-n3ccnc3)cc2)c1 | -9.87%
6 | O=C(Nc1nc2ccccc2s1)C1CC(=O)N(c2ccc(Br)cc2)C1 (centres unmarked) | 11.9%
7 | O=C(c1ccc(S(=O)(=O)c2cccc(Cl)c2)c([N+](=O)[O-])c1)N1CCN(Cc2ccccc2)CC1 | 15.8%
8 | Cc1cc(NC(=O)C2CCCCC2)ncc1NC(=O)c1ccccn1 | 13%
9 | Cc1ccc(S(=O)(=O)Nc2c(C)nc3nc(C)[nH]n3c2=O)c(C)c1 | 11.4%
10 | CCc1nnc(NC(=O)CSCc2cc(=O)n3nc(C)sc3n2)s1 | 16.7%
11 | Cc1nonc1C(=O)N1CCCC(Nc2ccc(C(C)C)cc2)C1 (centres unmarked) | 9.71%
12 | CC(=O)c1cccc(OCC(O)CNCCOc2ccc(C)cc2)c1 (centres unmarked) | 1.37%
13 | CCOC(=O)Cc1csc(NC(=O)CSc2nc(N)c3c(C)c(C)sc3n2)n1 | -5.18%
14 | O=C(CSc1nnc(-c2ccco2)n1Cc1ccccc1)c1ccc(F)cc1 | -24.1%
15 | O=C1CS/C(=N/N=C/c2cccs2)N1 | -6.76%
16 | CCN(CC)S(=O)(=O)c1cc(OC)c(C)cc1C | 10.9%
17 | CC(=O)Nc1ccc(NC(=O)C2c3ccccc3Oc3ccccc32)cc1 | 5.85%
18 | COc1cccc(CNC(=O)COC(=O)c2cccc(S(=O)(=O)N3CCN(C(C)=O)CC3)c2)c1 | 3.2%
19 | CC(C)(C)NC(=O)CN(C(=O)CS(=O)CC(=O)Nc1ccc(F)cc1)c1ccc(F)c(Cl)c1 (centres unmarked) | 0.265%
20 | CC(C)CC1(C)NC(=O)N(CC(=O)NC(=O)Nc2ccc3c(c2)OCCO3)C1=O (centres unmarked) | -0.0003%
21 | O=C(O)C(=O)O.O=S(=O)(c1ccc2ccccc2c1)N1CCN(Cc2ccccn2)CC1 | 7.9%
22 | CCOc1ccccc1NC(=S)N1CCN(c2ccccc2F)CC1 | 10.6%

Row | Compound | hERG current change (%, negative = inhibition) at 1uM
23 | CC(=O)c1cccc(OCc2cc(C(=O)N(C)Cc3cnccn3)no2)c1 | 20.2%
24 | Cc1ccc(Cl)c(OC(=O)C2CSC3(C)CCC(=O)N23)c1 (centres unmarked) | 11%
25 | CCOc1ccccc1C(=O)Nc1cccc(-c2nnc(-c3ccccc3)o2)c1 | -2.48%
26 | CCOc1ccccc1-c1nc(-c2cc3ccc(C)cc3[nH]c2=O)no1 | 10.9%
27 | Cc1cc(C)c(C)c(OCC(=O)NCCN(C)C)c1 | 0.923%
28 | COc1ccc(N(CC(=O)NCCc2ccccc2)C(=O)CCC(=O)Nc2ccccn2)cc1 | 6.52%
29 | COc1ccc(CCN(C)C(=O)c2c(C)noc2C)cc1OC | 14.5%
30 | COc1ccc(C(=O)NCCc2ccccc2)cc1[N+](=O)[O-] | 2.4%
31 | O=c1cccc2n1CC1CC2CN(CC(O)CN2CC3CC(C2)c2cccc(=O)n2C3)C1 (centres unmarked) | 15.9%
32 | O=[N+]([O-])c1ccc(N2CCCCC2)c(-c2nn[nH]n2)c1 | 3.11%
33 | O=C(COC(=O)c1nn(-c2ccccc2)c(=O)c2ccccc12)NC1CCS(=O)(=O)C1 (centres unmarked) | 6.46%
34 | COc1cccc(OCc2nnc(-c3cccs3)o2)c1 | 17.3%
35 | O=C(CSc1nnc(NC(=O)c2ccccc2[N+](=O)[O-])s1)NCC1CCCO1 (centres unmarked) | 8.54%
36 | COc1ccc(NC2=CC(=O)CC(c3ccc(C)cc3)C2)c(OC)c1 (centres unmarked) | 3.1%
37 | Clc1ccc(-c2nnc3sc(Cc4cccs4)nn23)cc1 | 12.8%
38 | COc1cccc(CN2CCN(c3cccc(C(F)(F)F)c3)CC2)c1OC | -0.184%
39 | CC(Oc1ccc(F)cc1)C(=O)Nc1ccc(S(=O)(=O)NC2=NCCCCC2)cc1 (centres unmarked) | 8.82%
40 | O=C1CCCc2c1cc(C(=O)NC1CCSC1=O)c(=O)n2-c1ccccc1 (centres unmarked) | 11.6%
41 | C/C(=N\S(=O)(=O)c1ccc(C)cc1)N1CCN(S(=O)(=O)c2ccccc2)C1 | -7.82%
42 | CN(C)N1C(N)=C(C#N)C(c2ccc(F)cc2)C2=C1CCCC2=O (centres unmarked) | 4.83%
43 | COc1ccc(C(=O)Nc2cnn(Cc3c(F)cccc3Cl)c2)cc1OC | 14.2%
44 | O=[n+]1c2c(n([O-])c3c1CCCC3)CCCC2 | -0.299%

Row | Compound | hERG current change (%, negative = inhibition) at 1uM
45 | CCCN1CCC(NC(=O)Nc2ccc(OC)c(OC)c2)CC1 | 8.14%
46 | CC1(C)CC(=O)C=C(c2ccc3ncccc3c2)C1 | 10.8%
47 | Cc1cccc(NC(=O)c2ccc(COc3cccc4ccccc34)o2)n1 | 8.61%
48 | COc1cc(NC2=CC(=O)CC(C)(C)C2)cc(OC)c1OC | -4.45%
49 | COC(=O)c1cc([N+](=O)[O-])ccc1N1CCN(Cc2ccccc2)CC1 | -41.1%
50 | CCOc1ccc(C(C(=O)NCC2CCCO2)N(Cc2ccccc2)C(=O)c2snc(C(N)=O)c2N)cc1 (centres unmarked) | 8.15%
51 | CC(=O)c1ccc(S(=O)(=O)Nc2ccc(-c3cn4c(n3)SCC4)cc2)cc1 | -0.377%
52 | Cc1oc2c(c(C)cc3oc(=O)c(CC(=O)N[C@@H](CCCNC(N)=O)C(=O)O)c(C)c32)c1C | 10.7%
53 | COc1cc(/C=N\Nc2ccc([N+](=O)[O-])cn2)ccc1OCC(=O)O | 7.63%
54 | CN(CCO)c1cnccn1 | 11.3%
55 | CCOC(=O)C1CCN(C(c2ccc(OC)c(OC)c2)c2sc3nc(C)nn3c2O)CC1 (centres unmarked) | 18.4%
56 | Cc1ccc(N(C(=O)c2csnn2)C(C(=O)NC2CCCCC2)c2ccccn2)cc1C (centres unmarked) | -5.94%
57 | Cc1nn(-c2ccccc2)c2c1C(c1cccnc1)N1C=C(S(=O)(=O)N3CCCCC3)C=CC1=N2 (centres unmarked) | 14.3%
58 | Cc1c(/C(Cc2ccccc2)=N/O)c2ccccc2n1C | 0.738%
59 | Cc1nc(Nc2ccc(O)cc2)c2c3c(sc2n1)CCCC3 | 4.26%
60 | COC(=O)c1ccc(OCC(=O)Nc2ccsc2C(=O)OC)cc1 | 4.45%
61 | O=c1[nH]c(SCc2ccccc2Cl)nc2c1CCCC2 | 5.36%
62 | O=C(O)/C=C\c1cn(-c2ccccc2)nc1-c1cc2ccccc2o1 | 15.7%
63 | O=C1c2ccccc2C(=O)N1CCOc1ccccc1Cl | 5.4%
64 | O=C(NC(c1ccccc1)c1cc(Cl)c2cccnc2c1O)c1cccnc1 (centres unmarked) | 4.18%
65 | O=C(CCNS(=O)(=O)c1cccs1)NC1CCN(Cc2ccccc2)CC1 | 15.9%
66 | COc1cc(S(=O)(=O)NCc2ccccc2Cl)ccc1-n1cnnn1 | 8.28%

Row | Compound | hERG current change (%, negative = inhibition) at 1uM
67 | Cc1nc2cc(C(=O)OCC(=O)Nc3cccc(Cl)c3)ccc2n1-c1ccccc1 | 2.97%
68 | O=C(CSc1nnc(-c2cccnc2)n1-c1ccccc1)Nc1ccc2c(c1)OCO2 | -1.28%
69 | CC1CCC(NC(=O)c2ccc(COc3ccccc3)o2)CC1 (centres unmarked) | 8.65%
70 | CCOC(=O)CCc1c(C)c(C#N)c2nc3ccccc3n2c1-n1ccnc1 | -15.5%
71 | O=C(CCCNS(=O)(=O)c1cccs1)N1CCN(c2ccc(F)cc2)CC1 | -13.2%
72 | COc1ccc(C(=S)N2CCN(C)CC2)cc1 | -1.07%
73 | CC(=O)C(Cc1ccccc1)NC(=O)CN1CCN(Cc2ccccc2)CC1 (centres unmarked) | 1.93%
74 | Cc1ccc(S(=O)(=O)N2CCC(=O)N(C(COCc3ccccc3)C(C)C)CC2)cc1 (centres unmarked) | 3.6%
75 | O=c1[nH]c(/C=C\c2cccc(Cl)c2)nc(O)c1[N+](=O)[O-] | 13.6%
76 | CC1CC(C)CN(CCCNC(=O)c2ccc(CS(=O)(=O)Cc3ccccc3F)o2)C1 (centres unmarked) | -1.31%
77 | Cc1ccc(NC(=O)C(OC(=O)c2ccc(C=O)cc2)c2ccccc2)cc1Cl (centres unmarked) | -1.36%
78 | CCn1ccc2cc(OC)ccc2c1=S | 17.4%
79 | COc1ccc(NC(=O)CSc2ncnc3c2nnn3-c2ccc(F)cc2)c(OC)c1 | 3.61%
80 | Nc1nonc1-n1nnc(C(=O)N/N=C\c2ccncc2)c1CN1CCCCC1 | 7.34%
81 | Cc1nc2ncnn2c(C)c1CCC(=O)NCCC1=CCCCC1 | -14.9%
82 | Cc1ccccc1NC(=O)Cc1nc(COC(=O)c2cccc(C)c2O)cs1 | -0.492%
83 | CC(NC(=O)c1cc2cc([N+](=O)[O-])ccc2oc1=O)C1CCCO1 (centres unmarked) | 6.39%
84 | Cc1cccc(N)c1-c1c(C)cccc1N | 5.5%
85 | O=C(N(Cc1ccccc1)c1ccccn1)C12CC3CC(CC(C3)C1)C2 | -7.1%
86 | CC(C)C(=O)Nc1cc2c(cc1C(=O)c1ccccc1)OCCO2 | 3.33%

Source: publication PMC4336329 (PLoS ONE, 2015)
